Experimental data from publication PMC4336329 (PLoS ONE, 2015).
Screen size: about 310,000 compounds; about 2,200 (0.71%) showed an effect of 50% or more. Effects have a minus sign here. The list shows a part of the results.

Target: human ether-à-go-go-related gene (hERG) potassium channel (human, UniProt Q12809)
Assay: primary screen, population patch clamp on CHO cells stably expressing hERG

human ether-à-go-go-related gene (hERG) potassium channel, sequence (Q12809 whole entry, looked up): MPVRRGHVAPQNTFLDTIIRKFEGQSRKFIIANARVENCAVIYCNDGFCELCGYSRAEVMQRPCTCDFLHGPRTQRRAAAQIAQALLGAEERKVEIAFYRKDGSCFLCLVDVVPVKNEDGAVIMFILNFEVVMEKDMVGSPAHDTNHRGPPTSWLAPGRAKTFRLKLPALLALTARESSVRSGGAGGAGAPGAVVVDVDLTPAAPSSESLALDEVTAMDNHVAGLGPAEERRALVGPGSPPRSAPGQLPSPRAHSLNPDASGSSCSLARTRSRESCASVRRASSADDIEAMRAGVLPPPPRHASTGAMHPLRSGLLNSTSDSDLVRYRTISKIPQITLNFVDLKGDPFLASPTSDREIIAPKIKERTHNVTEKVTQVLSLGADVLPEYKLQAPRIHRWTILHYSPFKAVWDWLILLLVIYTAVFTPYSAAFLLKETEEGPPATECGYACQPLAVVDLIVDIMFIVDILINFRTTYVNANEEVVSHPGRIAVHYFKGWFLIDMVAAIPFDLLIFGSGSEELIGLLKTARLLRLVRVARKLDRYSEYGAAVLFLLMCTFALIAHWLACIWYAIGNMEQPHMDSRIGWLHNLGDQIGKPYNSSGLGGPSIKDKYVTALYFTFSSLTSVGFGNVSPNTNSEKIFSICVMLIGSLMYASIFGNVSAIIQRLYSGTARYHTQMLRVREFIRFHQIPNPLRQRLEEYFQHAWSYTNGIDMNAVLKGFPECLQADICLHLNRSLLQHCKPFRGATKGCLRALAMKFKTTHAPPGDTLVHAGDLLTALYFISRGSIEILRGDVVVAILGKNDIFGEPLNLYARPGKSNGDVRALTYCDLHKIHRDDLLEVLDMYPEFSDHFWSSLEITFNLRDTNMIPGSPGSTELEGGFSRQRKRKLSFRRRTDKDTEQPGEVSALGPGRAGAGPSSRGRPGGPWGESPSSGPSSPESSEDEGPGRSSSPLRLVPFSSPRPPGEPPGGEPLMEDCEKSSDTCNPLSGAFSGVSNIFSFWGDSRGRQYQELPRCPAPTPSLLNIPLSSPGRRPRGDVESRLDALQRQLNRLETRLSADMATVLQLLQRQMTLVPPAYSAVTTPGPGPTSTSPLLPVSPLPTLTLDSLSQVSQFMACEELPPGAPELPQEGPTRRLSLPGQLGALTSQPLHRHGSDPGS

Compound | hERG current change (%, negative = inhibition) at 1uM
CCN(CC)S(=O)(=O)c1ccc(Cl)c(NC(C)=O)c1 | 9%
O=C(NCc1ccc(Cl)cc1)c1cc(-c2cccs2)on1 | -4.35%
Cc1cccc(NC(=S)NC(=O)c2cc(-c3ccccc3)nc3ccccc23)c1 | 3.91%
c1cc(C2CCCCC2)ccc1Oc1nc(N2CCOCC2)nc(N2CCOCC2)n1 | 10.8%
CCOC(=O)C1CCN(C(=O)Nc2ccc(OC)c(OC)c2)CC1 | 5.42%
Cc1ccc(-c2c3c(nc4sc(C(N)=O)c(N)c24)CCC3)cc1 | 2.41%
COc1ccccc1N1CCN(C(=O)c2cccc(N3C(=O)NC4CC3(C)Oc3ccccc34)c2)CC1 (centres unmarked) | 12.5%
O=c1[nH]c2ccccc2c2oc(CCl)nc12 | 10.7%
O=C(CSc1nnc(-c2cc3ccccc3cc2O)n1Cc1ccco1)N1CCc2ccccc2C1 | 10.1%
Br.COCCNc1nc2ccccc2n1CC(=O)c1ccc(OC)c(OC)c1 | 9.18%
Cc1cc(C)nc(NC2=NCCN2C(=S)Nc2ccc(C)c(C)c2)n1 | 12.5%
CCOc1ccc(OCC)c(S(=O)(=O)N2CCC(C)CC2)c1 | -13.4%
Cc1cc(C(=O)CCC(=O)NCC2COc3ccccc3O2)c(C)s1 (centres unmarked) | -3.81%
COc1ccc(OC)c(Nc2nc(C3CC3)nc3c2nnn3Cc2ccccc2)c1 | 17.9%
CCN(CCCNC(=O)Cn1ncc2c([nH]c3ccc(C)cc32)c1=O)c1ccccc1 | 13.1%
COC(=O)C(OC(=O)c1ccccc1)C(C)Br (centres unmarked) | -5.65%
O=c1c2cc(Cl)ccc2nc(-c2ccccc2)n1O | 16.7%
CCOC(=O)c1nnc(-c2ccccc2)nc1NC | 2.74%
COCCCN1C(=O)C(=O)/C(=C(/O)c2ccc(OC)cc2C)C1c1cccnc1 (centres unmarked) | 13.5%
COc1cccc(OCCOc2ccccc2[N+](=O)[O-])c1 | 4.36%
O=c1[nH]nc(Sc2ncnc3sccc23)n1CCc1ccccc1 | -5.11%
Cl.O=C(Nc1cccc(C(F)(F)F)c1)c1cccnc1NCCO | 6.06%
O=C(CSc1nc2ccccc2o1)N1CCN(S(=O)(=O)c2ccc3ccccc3c2)CC1 | 17.9%

Compound | hERG current change (%, negative = inhibition) at 1uM
COc1cc(/C=N/NC(=O)CCn2nc(C)cc2C)ccc1O | 8.93%
O=c1c(-c2ccc3c(c2)OCCO3)coc2cc(O)cc(O)c12 | -0.99%
O=C(O)CN(c1cccc(C(F)(F)F)c1)S(=O)(=O)c1ccccc1 | 6.78%
CCOC(=O)CSc1nnc(Cc2ccccc2)n1Cc1ccco1 | 5.35%
O=C(COc1ccccc1C(=O)NCC1CCCO1)Nc1ccc(Br)cc1 (centres unmarked) | -2.23%
CCOC(=O)C(Cc1ccc(NC(=O)/C(=C/c2ccccc2)NC(=O)c2ccccc2)cc1)N1C(=O)c2ccccc2C1=O (centres unmarked) | 12.9%
CCCCNC(=O)c1[nH]c(C)c(C(C)=O)c1C | 13.9%
c1ccc(-c2noc(CCC3CCCC3)n2)cc1 | 21.1%
O=C(Nc1cc(C(F)(F)F)ccc1N1CCOCC1)c1ccc2ccccc2n1 | 16%
CCc1ccc(S(=O)(=O)NCc2cccs2)cc1 | 3.76%
c1cncc(CNc2ncn[nH]2)c1 | 12%
Cc1cc(C)cc(OCC(=O)NCc2nc(-c3ccccc3)no2)c1 | 6.88%
COc1ccc(C(=O)NNC(=O)c2ccc(C)cc2)cc1S(=O)(=O)N1CCCC1 | 6.7%
CCOC(=O)C1(CC2CCCCO2)CCN(C(=O)Nc2ccc3c(c2)OCO3)CC1 (centres unmarked) | 15.5%
COc1ccc(NC(=O)CSc2n[nH]c(CNc3cccc(C)c3)n2)cc1 | 8.44%
COC(=O)c1ccc(N2CCN(S(=O)(=O)c3c(C)cc(C)cc3C)CC2)c([N+](=O)[O-])c1 | 16%
Cc1ccc(C(=O)NC2CCN(CCCC(=O)c3ccc(F)cc3)CC2)cc1 | -72.9%
CC(C(=O)Nc1ccc2c(c1)OCO2)c1ccc([N+](=O)[O-])cc1 (centres unmarked) | 8.93%
CC(/C=N/NC(=O)c1ccccc1F)c1ccccc1 (centres unmarked) | 15.7%
COc1ccccc1OCC(=O)NNC(=O)C(=O)N1CCCC1 | 10%
N#CCCn1cc(/C=N/N=C2\NC(=O)C(CC(=O)O)S2)c(-c2ccc(F)cc2)n1 (centres unmarked) | 14.3%
Cc1ccc(NC(=O)COC(=O)c2ccn(C)n2)cc1 | 7.01%
Cc1ccc(NC(=S)Nc2ccccn2)cc1C | 9.72%

Compound | hERG current change (%, negative = inhibition) at 1uM
CC(C)Cn1c(NCCN(C)C)nc2c1c(=O)[nH]c(=O)n2C | 14%
O=C(CNC(=O)c1ccccc1Br)NCCSc1ccc(Br)cc1 | -4.76%
COc1ccccc1NC(=O)Cn1nc(C(F)(F)F)c2c1CCCC2 | -1.98%
COc1cc(/C=N/NC(N)=O)ccc1OC(=O)c1cccs1 | 2.52%
CCCN(CC1CC1)C(=O)CSc1nnc(-c2cc(-c3cccs3)nc3ccccc23)o1 | 6.71%
CC1(C)CC(=O)C(C=NCC2CCN(C(=O)Cc3ccccc3)CC2)=C(O)C1 | 4.67%
O=C(C#Cc1ccccc1)c1ccco1 | 12.2%
COCCN1C(=O)C(CC(=O)Nc2ccccc2)SC1=Nc1ccc(OC)cc1 (centres unmarked) | 12.6%
CCC(C)N(C(=O)c1csnn1)C(C(=O)NCc1ccc(F)cc1)c1ccccc1 (centres unmarked) | 7.54%
CCOC(=O)C1=C(CSCC(=O)OC)NC(=O)NC1c1cc(C)ccc1C (centres unmarked) | -4.49%
O=C(Cc1ccc(Cl)cc1)NCCCNC(=O)c1cccnc1 | 19.9%
O=C(O)c1cn[nH]c1-n1cnnn1 | 0.974%
COc1cccc2c3c(c(=O)[nH]c12)CCC(C)(C)O3 | 12.4%
O=C(c1ccoc1)N1CCCC(Nc2ccc(F)c(F)c2)C1 (centres unmarked) | 15.6%
O=C(NCc1ccccc1F)c1ccncc1 | 14.5%
CN1CCN(c2oc(-c3ccco3)nc2S(=O)(=O)c2ccccc2)CC1 | 8.77%
O=C(Nc1ccc(F)cc1)C(c1ccccc1)N1CCN(S(=O)(=O)c2c(F)cccc2F)CC1 (centres unmarked) | 9.94%
COc1ccc(C)cc1NC(=O)CCC(=O)Nc1nnc(C(F)(F)F)s1 | 24.6%
CCOC(=O)N1CCN(C(=O)CSc2nc3c(cnn3-c3ccc(Cl)cc3)c(=O)[nH]2)CC1 | 7.58%
COC(=O)C1=CN(c2ccc(OC)cc2)C=C(C(=O)OC)C1c1cccc(F)c1 | 13.7%
O=C(Oc1ccc(=O)n(-c2ccccc2)n1)c1ccccc1 | 0.0788%
CC1(C)CC(=O)c2cc(OCC(=O)N3CCOCC3)ccc2O1 | 3.21%
CCCCn1c(/N=C/c2cc(OC)ccc2O)nc2ccccc21 | 15%

Compound | hERG current change (%, negative = inhibition) at 1uM
Cc1csc(NC(=O)CSc2nnc(NC(=O)COc3ccc(Cl)cc3)s2)n1 | 27.6%
Cc1csc(OCC(=O)Nc2ccc(C)c(C)c2)n1 | 9.82%
CCN(Cc1ccccc1)Cc1nc(CCc2ccccc2)no1 | 4.83%
CN(C)C(=O)Oc1ccc[n+](C)c1.[Br-] | -0.301%
CC(=O)Nc1ccc(CC(=O)N2CCN(Cc3ccccc3)CC2)cc1 | 11.7%
NC(=S)N=Nc1c(O)n(CCCl)c2ccccc12 | 5.57%
Cc1cc(C)n2cc(CSc3ccccn3)nc2n1 | 14.4%
O=C1c2ccccc2C(=O)N1CCc1nc2ccccc2c(=O)n1Cc1ccco1 | -21.8%
O=S(=O)(c1ccccc1)N1CCN(C(=S)Nc2ccccc2)CC1 | 11.5%
COc1cc(NC(=O)c2cccc(C)c2)c(OC)cc1NC(=O)CN1CCOCC1 | 12%
CN(C)NC(=S)NC1CCS(=O)(=O)C1 (centres unmarked) | 16.7%
COC(=O)c1ccc(NC(=O)CCN2C(=O)C3C4CCC(C4)C3C2=O)cc1 (centres unmarked) | 9.37%
Cc1ccc(NC(=O)CCC(=O)NNC(=O)COc2ccccc2)cc1C | 17.2%
Cc1cc(C)nc(-n2nc(C)c(C3(O)C(=O)Nc4ccccc43)c2N)n1 (centres unmarked) | 14.1%
CCc1ccccc1OCC(=O)OCC(=O)Nc1cc(C)on1 | 3.58%
CN(C(=O)COc1cccc(Br)c1)C1CCS(=O)(=O)C1 (centres unmarked) | 5.44%
COc1cccc(OCc2nnc(SCC(=O)OCc3ccccc3)o2)c1 | -0.282%
CC(=O)Nc1ccc(SCC(=O)c2cc(C)n(-c3ccccc3F)c2C)cc1 | 10.9%
COc1cc(C(=O)[O-])ccc1Cl.[NH4+] | 13.6%
CCNC(=O)CN1C(=O)NC2(CCOc3ccccc32)C1=O (centres unmarked) | 12.8%
O=C1N=C(N2CCOCC2)S/C1=C/c1ccc(-c2ccc(F)cc2)o1 | 9.65%
N=C1C(c2ccccc2)=C(O)CN1CCO | 13.7%
Cc1oc(C)c(S(=O)(=O)NCc2cccs2)c1C(=O)O | 8.21%
